Experiment [1] addresses FGFR3 on AMB-BT-0112T cells (glioblastoma patient-derived cells, FGFR3 overexpression, FGFR3-TACC3 fusion) (human (patient-derived cells), UniProt P22607 23-758). The experiment can be described thus: cell-based or functional assay.
Experiment [2] has as its target T1, human FGFR3 (Sinobiological, 16044-H08H) (human, UniProt P22607 23-375).
T1 construct: Bought protein
T1 sequence (looked up): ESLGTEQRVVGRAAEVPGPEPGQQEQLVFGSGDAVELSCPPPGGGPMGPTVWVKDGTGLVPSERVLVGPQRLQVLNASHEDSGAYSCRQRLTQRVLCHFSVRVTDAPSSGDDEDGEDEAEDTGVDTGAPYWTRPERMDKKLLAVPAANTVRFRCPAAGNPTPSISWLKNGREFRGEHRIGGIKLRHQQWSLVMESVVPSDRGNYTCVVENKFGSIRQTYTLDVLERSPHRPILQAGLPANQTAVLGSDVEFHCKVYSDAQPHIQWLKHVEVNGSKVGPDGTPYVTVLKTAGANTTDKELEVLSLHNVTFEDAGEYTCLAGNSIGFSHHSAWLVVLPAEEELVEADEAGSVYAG
The experiment in a line: ELISA, human FGFR3 coated on the plate. Background: ELISA stands for enzyme-linked immunosorbent assay.

Experiment [3] addresses T2, cynomolgus FGFR3 protein (Sino Biological, 90313-C02H) (cynomolgus, UniProt A0A2K5V1U5 23-376).
T2 construct: Bought protein; also called Monkey FGFR3
T2 sequence: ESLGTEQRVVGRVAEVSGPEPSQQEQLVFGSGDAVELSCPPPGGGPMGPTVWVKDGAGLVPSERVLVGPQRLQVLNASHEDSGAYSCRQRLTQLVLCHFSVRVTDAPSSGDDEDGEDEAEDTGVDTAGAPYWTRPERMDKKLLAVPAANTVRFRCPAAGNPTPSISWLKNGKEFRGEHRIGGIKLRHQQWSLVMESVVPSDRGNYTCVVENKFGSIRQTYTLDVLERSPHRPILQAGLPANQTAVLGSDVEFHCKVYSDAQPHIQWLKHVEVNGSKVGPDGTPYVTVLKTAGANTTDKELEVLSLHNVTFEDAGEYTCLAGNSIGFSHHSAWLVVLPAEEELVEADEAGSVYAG
The experiment in a line: ELISA, coated cynomolgus FGFR3 (1 ug/mL), anti-human Fab-HRP, OD 450 nm. On the procedure: (§1) 1) One microgram per milliliter of each human FGFR3 (R&D systems, 1264-FR-050), cynomolgus FGFR3 (Sino Biological, 90313-C₀₂H) protein or mouse FGFR3 (R&D systems, 710-MF-050) was coated on 96-well plates at 4° C. for over-night, respectively. The plates were blocked in 3% skim milk containing anti-FGFR3-antibodies and incubated for 1 h at room temperature. After washing with PBST (0.1%), the anti-human Fab antibody conjugated horseradish peroxidase (HRP) (Thermo Scientific, 31482, Waltham, MA, USA) was added at a ratio of 1:3000. Following the wash, the plate was treated with TMB solution (Thermo Scientific, N301, Waltham, MA, USA) as an HRP substrate, and the reaction was stopped with STOP solution (Cell Signaling Technology, #7002, Danvers, MA, USA).

Experiment [4] concerns the target T2, cynomolgus FGFR3 protein (Sino …). The experiment in a line: SPR, Biacore 3000, FGFR3 protein amine-coupled on the chip. The procedure: (§2) The binding affinity (KD value) of the anti-FGFR3 antibody was measured using a Biacore 3000. Human (FGFR3-IIIb and -IIIc, R&D systems, 1264-FR-050), mouse (R&D systems, 710-MF-050) and cynomolgus FGFR3 proteins (Sino Biological, 90313-C02H) were coated with an amine coupling kit (GE Healthcare Life Sciences, BR100050, Uppsala, Sweden).
In general terms: Surface plasmon resonance follows binding to a sensor surface in real time, without labels.

The target in experiment [5] is T3, Human FGFR3-IIIb protein (R&D systems, 1264-FR-050) (Human, UniProt P22607-2 23-377).
T3 construct: Bought protein
T3 sequence (looked up): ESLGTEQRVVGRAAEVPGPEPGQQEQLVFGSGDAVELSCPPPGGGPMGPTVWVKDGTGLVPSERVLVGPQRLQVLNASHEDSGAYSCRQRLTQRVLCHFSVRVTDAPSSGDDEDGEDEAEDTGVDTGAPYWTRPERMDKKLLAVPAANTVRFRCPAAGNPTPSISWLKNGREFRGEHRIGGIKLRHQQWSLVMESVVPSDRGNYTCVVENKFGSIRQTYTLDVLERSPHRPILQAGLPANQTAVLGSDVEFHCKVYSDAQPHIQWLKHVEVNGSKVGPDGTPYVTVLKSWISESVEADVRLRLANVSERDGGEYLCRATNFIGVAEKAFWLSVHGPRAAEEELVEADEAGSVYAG
The description is as above. The procedure:
as §2

For experiment [6], the target named is T4, mouse FGFR3 protein (R&D systems, 710-MF-050) (mouse, UniProt Q61851 21-369, limits assumed).
T4 construct: Bought protein
T4 sequence (looked up): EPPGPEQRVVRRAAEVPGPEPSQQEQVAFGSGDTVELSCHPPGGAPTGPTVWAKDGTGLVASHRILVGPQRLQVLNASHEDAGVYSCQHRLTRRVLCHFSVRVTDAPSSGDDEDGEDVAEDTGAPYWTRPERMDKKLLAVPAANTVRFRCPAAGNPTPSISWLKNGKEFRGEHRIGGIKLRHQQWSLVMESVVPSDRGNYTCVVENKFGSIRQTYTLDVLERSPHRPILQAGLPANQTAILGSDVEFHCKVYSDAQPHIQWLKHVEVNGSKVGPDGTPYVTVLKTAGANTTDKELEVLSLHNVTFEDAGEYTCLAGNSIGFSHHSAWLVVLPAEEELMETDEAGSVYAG
The experiment in a line: ELISA, coated mouse FGFR3 (1 ug/mL), anti-human Fab-HRP, OD 450 nm. The procedure:
as §1

Experiment [7] deals with FGFR3 on RT112 cells (bladder cell line, DSMZ ACC418, FGFR3 overexpression) (UniProt P22607 23-806, limits assumed). The experiment can be described thus: cell-based or functional assay.

B1: ADC19 (A9Q conjugated with Linker-Payload 1) (antibody, human IgG1, lambda, DAR 3.62)
heavy: EVQLLESGGGLVQPGGSLRLSCAASGFTFSSYDMSWVRQAPGKGLEWVSGIYSGDGSIYYADSVKGRFTISRDNSKNTLYLQMNSLRAEDTAVYYCAKDGPMNEESRFDYWGQGTLVTVSS[human IgG1 constant region not written out]
light: QSVLTQPPSASGTPGQRVTISCSGSSSNIGNNYVSWYQQLPGTAPKLLIYADSKRPSGVPDRFSGSKSGTSASLAISGLRSEDEADYYCASWDYSLSGYVFGGGTKLTVLGQPKAAPSVTLFPPSSEELQANKATLVCLISDFYPGAVTVAWKADSSPVKAGVETTTPSKQSNNKYAASSYLSLTPEQWKSHRSYSCQVTHEGSTVEKTVAPTECGALPETGG
modifications: C-terminal LPETGG: the peptide bond upstream of GG is cleaved by Sortase A and the chain is linked to the free N-terminal G3 of Linker-Payload 1 (two DXd payloads per linker)
notes: Antibody-drug conjugate; in the conjugate the terminal GG is replaced by the GGG of the linker
For orientation: EC50 means the midpoint of the concentration-response curve. Lower therefore signals greater potency. In the case of B1, in experiment [1], the “IC50 (nM), cytotoxicity on 3D single spheroids” value was 10 nM. This molecule returned an EC50 in experiment [2] of 42.7 pM.

B2: anti-FGFR3 antibody A9 (antibody, human IgG1, lambda)
heavy: EVQLLESGGGLVQPGGSLRLSCAASGFTFSSYDMSWVRQAPGKGLEWVSGIYSGDGSIYYADSVKGRFTISRDNSKNTLYLQMNSLRAEDTAVYYCAKDGPMNEESRFDYWGQGTLVTVSS[human IgG1 constant region not written out]
light: QSVLTQPPSASGTPGQRVTISCSGSSSNIGNNYVSWYQQLPGTAPKLLIYADSKRPSGVPDRFSGSKSGTSASLAISGLRSEDEADYYCASWDYSLSGYVFGGGTKLTVLGQPKAAPSVTLFPPSSEELQANKATLVCLISDFYPGAVTVAWKADSSPVKAGVETTTPSKQSNNKYAASSYLSLTPEQWKSHRSYSCQVTHEGSTVEKTVAPTEC
notes: produced in Expi 293 cells
Usually EC50 (read off the curve) stands for the concentration needed to bring the measured effect to its halfway point. Read a high EC50 (read off the curve) as a less potent agent. Usually Kd stands for the concentration at which binding is half-saturated. For the molecule B2, the “EC50 (read off the curve)” value in experiment [3] was ~300 pM. The Kd in experiment [4] was found to be 755 pM; in experiment [5] it was 590 pM. Further, the binding result in experiment [6] was “no binding (tested: 100 nM (log 2))”. In experiment [2], this molecule displayed an EC50 of 47.7 pM.

B3: ADC20 (A9Q conjugated with Linker-Payload 2) (antibody, human IgG1, lambda, DAR 3.58)
heavy: EVQLLESGGGLVQPGGSLRLSCAASGFTFSSYDMSWVRQAPGKGLEWVSGIYSGDGSIYYADSVKGRFTISRDNSKNTLYLQMNSLRAEDTAVYYCAKDGPMNEESRFDYWGQGTLVTVSS[human IgG1 constant region not written out]
light: QSVLTQPPSASGTPGQRVTISCSGSSSNIGNNYVSWYQQLPGTAPKLLIYADSKRPSGVPDRFSGSKSGTSASLAISGLRSEDEADYYCASWDYSLSGYVFGGGTKLTVLGQPKAAPSVTLFPPSSEELQANKATLVCLISDFYPGAVTVAWKADSSPVKAGVETTTPSKQSNNKYAASSYLSLTPEQWKSHRSYSCQVTHEGSTVEKTVAPTECGALPETGG
modifications: C-terminal LPETGG: the peptide bond upstream of GG is cleaved by Sortase A and the chain is linked to the free N-terminal G3 of Linker-Payload 2 (two payloads per linker)
On to B3, for which the “IC50 (nM), cytotoxicity on 3D single spheroids” value in experiment [1] was 21 nM; in experiment [7], 10 nM.

For the origin of these results see US20250387505A1 (GENEQUANTUM HEALTHCARE SUZHOU, published 2025).
